Laboratory results reported in the supplement of paper PMC9446081.
The whole screen tested about 39,000 compounds, of which about 220 (0.56%) showed activity. Some of the results follow.

tested on: Escherichia coli K-12 BW25113; experiment: relative growth (OD600 normalised to plate interquartile mean) (fraction); higher = less growth inhibition, active = 0.2 or less; details: 50 µM; LB; incubation time: overnight (16-24 h)
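Note: static incubation at 37 °C against the wild-type strain, values averaged over two biological replicates.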

| SMILES | relative growth |
| --- | --- |
| Cc1noc(C)c1S(=O)(=O)N(C)C[C@H]1OCCCC[C@@H](C)Oc2ccc(NC(=O)Nc3cccc4ccccc34)cc2C(=O)N([C@@H](C)CO)C[C@@H]1C | inactive: 0.95 |
| C[C@H]1CCCCO[C@H](CN(C)C(=O)Nc2ccc(C(F)(F)F)cc2)[C@@H](C)CN([C@@H](C)CO)C(=O)c2cc(NS(=O)(=O)c3ccccc3)ccc2O1 | inactive: 1.02 |
| C[C@@H]1CN([C@@H](C)CO)C(=O)c2cc(N(C)C)ccc2O[C@H]1CN(C)S(=O)(=O)c1ccc(Cl)cc1 | inactive: 0.994 |
| CC=Cc1ccc2n(c1=O)C[C@H]1[C@H](CO)[C@@H](C(=O)NCCc3cn(C)cn3)[C@@H]2N1C(=O)CC | inactive: 1.05 |
| C[C@H](CO)N1C[C@H](C)[C@H](CN(C)C(=O)Nc2ccc(F)cc2)OCCCC[C@H](C)Oc2ccc(NC(=O)CCC(F)(F)F)cc2C1=O | inactive: 0.989 |
| Cc1noc(C)c1NC(=O)Nc1ccc2c(c1)CC(=O)N([C@@H](C)CO)C[C@@H](C)[C@H](CN(C)C(=O)NC(C)C)O2 | inactive: 1.04 |
| NCC[C@@H](O)c1ccc(Br)cc1 | inactive: 0.983 |
| C[C@H]1CN([C@@H](C)CO)C(=O)c2cc(NC(=O)Nc3ccc(F)cc3)ccc2O[C@H]1CN(C)Cc1ccc(-c2ccccc2)cc1 | inactive: 0.994 |
| O=c1[nH]c(=S)nc2[nH][nH]cc1-2 | inactive: 0.997 |
| Cc1noc(C)c1NC(=O)Nc1ccc2c(c1)C(=O)N([C@@H](C)CO)C[C@H](C)[C@H](CN(C)S(=O)(=O)c1ccccc1)OCCCC[C@@H](C)O2 | inactive: 1.01 |
| Cc1noc(C)c1S(=O)(=O)Nc1ccc2c(c1)CC(=O)N([C@H](C)CO)C[C@H](C)[C@H](CN(C)C(=O)NC(C)C)O2 | inactive: 0.967 |
| C[C@@H]1CCCCO[C@H](CN(C)Cc2ccc(C(F)(F)F)cc2)[C@H](C)CN([C@H](C)CO)C(=O)c2cc(NC(=O)Nc3ccc(C(F)(F)F)cc3)ccc2O1 | inactive: 1.07 |
| Oc1ccc(Cl)c2cccnc12 | active: 0.0534 |
| COc1ccc2c3c([nH]c2c1)[C@H](CO)N(C[C@]13CN(C1)S(=O)(=O)c1cn(cn1)C)C(=O)Nc1ccc(cc1)F | inactive: 0.981 |
| CC(=O)N(O)CCCCCNC(=O)CCC(=O)N(O)CCCCCNC(=O)CCC(=O)N(O)CCCCCN.CS(=O)(=O)O | inactive: 0.948 |
| Cc1ccc(S(=O)(=O)N(C)C[C@@H]2Oc3ccc(NS(=O)(=O)c4ccccc4)cc3CC(=O)N([C@@H](C)CO)C[C@@H]2C)cc1 | inactive: 0.992 |
| C[C@@H]1CCCCO[C@@H](CN(C)Cc2ccc(C(F)(F)F)cc2)[C@@H](C)CN([C@H](C)CO)C(=O)c2cc(NC(=O)Nc3ccccc3)ccc2O1 | inactive: 1.04 |
| O=C(C[C@@H]1CC[C@@H](NC(=O)CN2CCOCC2)[C@@H](CO)O1)NCc1cccc(F)c1 | inactive: 1.01 |
| C[C@@H]1CCCCO[C@@H](CN(C)Cc2ccc(C(F)(F)F)cc2)[C@H](C)CN([C@H](C)CO)C(=O)c2cc(NS(=O)(=O)c3cn(C)cn3)ccc2O1 | inactive: 0.989 |
| Cc1ccc(S(=O)(=O)N(C)C[C@@H]2OCCCC[C@H](C)Oc3ccc(NC(=O)c4ccccc4)cc3C(=O)N([C@H](C)CO)C[C@@H]2C)cc1 | inactive: 1.02 |

| SMILES | relative growth |
| --- | --- |
| C[C@H]1CN([C@@H](C)CO)C(=O)c2cc(C#CC3(O)CCCC3)cnc2O[C@H]1CN(C)S(=O)(=O)c1cccc(F)c1 | inactive: 1 |
| CN(CC(=O)Nc1ccc(F)cc1F)S(=O)(=O)c1ccc2c(c1)c(=O)n(C)c(=O)n2C | inactive: 1.04 |
| C[C@@H]1CN([C@@H](C)CO)C(=O)c2cccc(NS(C)(=O)=O)c2O[C@@H]1CN(C)C(=O)Nc1ccc(F)cc1 | inactive: 0.989 |
| NCc1cccc(-n2cccn2)c1 | inactive: 1.01 |
| C[C@H]1Cc2cc(S(=O)(=O)N(C)CC(=O)N3CCOCC3)ccc2N1C(=O)C1CC1 | inactive: 1 |
| Cc1noc(C)c1S(=O)(=O)Nc1ccc2c(c1)C(=O)N([C@H](C)CO)C[C@H](C)[C@H](CN(C)C(=O)Nc1ccccc1)OCCCC[C@@H](C)O2 | inactive: 1 |
| Cc1ccc(S(=O)(=O)Nc2cccc3c2O[C@@H](CN(C)Cc2ccc(Oc4ccccc4)cc2)[C@H](C)CN([C@@H](C)CO)C3=O)cc1 | inactive: 1.05 |
| C[C@H](CO)N1C[C@H](C)[C@H](CN(C)S(=O)(=O)c2ccc(F)cc2)Oc2ccc(NC(=O)Nc3cccc4ccccc34)cc2C1=O | inactive: 1.03 |
| Cc1noc(C)c1NC(=O)Nc1ccc2c(c1)C(=O)N([C@@H](C)CO)C[C@H](C)[C@@H](CN(C)C(=O)Nc1cccc3ccccc13)O2 | inactive: 1.01 |
| C[C@@H]1CN([C@@H](C)CO)C(=O)CCCn2nncc2CO[C@H]1CN(C)Cc1ccc(C(=O)Nc2ccccc2N)cc1 | inactive: 0.987 |
| C[C@@H]1CN([C@H](C)CO)C(=O)Cc2cc(NS(=O)(=O)c3cccs3)ccc2O[C@H]1CN(C)Cc1ccc(Oc2ccccc2)cc1 | inactive: 0.994 |
| COc1ccc(S(=O)(=O)N(C)C[C@H]2Oc3ccc(NC(=O)Cc4ccccc4)cc3C(=O)N([C@H](C)CO)C[C@H]2C)cc1 | inactive: 1.03 |
| CN1C(=O)C[C@H](Nc2ccc(N(C)C)cc2)C1=O | inactive: 0.983 |
| N=c1cc(N2CCCCC2)nc(N)n1OS(=O)(=O)O | inactive: 0.993 |
| CN1CCN(C(=O)C[C@@H]2C=C[C@H](NC(=O)Cc3ccccn3)[C@@H](CO)O2)CC1 | inactive: 1.01 |
| CNCCC(Oc1ccc(C(F)(F)F)cc1)c1ccccc1.Cl (stereo not drawn) | inactive: 0.963 |
| NC(CO)(CO)CO.O=C(c1ccccc1)c1ccc2n1CCC2C(=O)O (stereo not drawn) | inactive: 0.914 |
| [N-]=[N+]=NCc1ccccc1C[C@@]1(C(=O)N2CCCCC2)N=C(c2ccc(OCCCO)cc2)O[C@@H]1c1ccccc1 | inactive: 1.03 |
| C[C@H]1CCCCO[C@@H](CN(C)C(=O)Nc2ccc(C(F)(F)F)cc2)[C@@H](C)CN([C@@H](C)CO)C(=O)c2cc(NS(=O)(=O)c3cccs3)ccc2O1 | inactive: 1.02 |
| CC(C)NC(=O)N(C)C[C@@H]1OCCCC[C@@H](C)Oc2ccc(NC(=O)Nc3ccccc3)cc2C(=O)N([C@@H](C)CO)C[C@H]1C | inactive: 1 |

| SMILES | relative growth |
| --- | --- |
| C[C@H](CO)N1C[C@H](C)[C@@H](CN(C)C(=O)Nc2ccccc2)Oc2ccc(NC(=O)CCN3CCOCC3)cc2C1=O | inactive: 0.964 |
| Cc1noc(C)c1NC(=O)Nc1ccc2c(c1)C(=O)N([C@@H](C)CO)C[C@@H](C)[C@@H](CN(C)S(=O)(=O)c1ccccc1)OCCCC[C@H](C)O2 | inactive: 0.998 |
| C[C@@H]1CCCCO[C@@H](CN(C)C(=O)c2ccccc2)[C@H](C)CN([C@@H](C)CO)C(=O)c2cc(NS(=O)(=O)c3ccc(F)cc3)ccc2O1 | inactive: 1 |
| COc1ccccc1C#Cc1cnc2c(c1)C(=O)N([C@H](C)CO)C[C@@H](C)[C@H](CN(C)C(=O)c1ccc3c(c1)OCO3)O2 | inactive: 1.01 |
| C[C@@H]1CCCCO[C@@H](CN(C)Cc2ccncc2)[C@H](C)CN([C@@H](C)CO)C(=O)c2cc(NC(=O)Nc3ccc(C(F)(F)F)cc3)ccc2O1 | inactive: 0.995 |
| C[C@@H]1CN([C@@H](C)CO)C(=O)Cc2cc(NC(=O)Cc3cn(C)c4ccccc34)ccc2O[C@@H]1CN(C)Cc1ccc(Oc2ccccc2)cc1 | inactive: 1 |
| Cc1ccc(S(=O)(=O)N[C@H](C(=O)NCCn2cc(-c3cccc(/C=C/C(=O)NO)c3)nn2)C(C)C)cc1 | inactive: 0.999 |
| COC(=O)[C@@H](Cc1ccc(-n2cc(-c3ccc(C(=O)NO)s3)nn2)cc1)N1CC2=C[C@H](C3CC3)n3c(=O)n(C)c(=O)n3[C@@H]2[C@H]1[C@H](O)Cc1ccccc1 | inactive: 1 |
| C[C@@H]1CN([C@@H](C)CO)C(=O)c2cc(NC(=O)NC3CCCCC3)ccc2O[C@@H](C)CCCCO[C@@H]1CN(C)S(=O)(=O)c1ccccc1 | inactive: 0.991 |
| C[C@H](CO)N1C[C@H](C)[C@@H](CN(C)Cc2ccc(Cl)c(Cl)c2)Oc2ccc(NC(=O)Nc3ccc(F)cc3)cc2C1=O | inactive: 0.99 |
| C[C@@H]1CN([C@H](C)CO)C(=O)c2cccc(NC(=O)C3CC3)c2O[C@@H]1CN(C)C(=O)Nc1ccc2c(c1)OCO2 | inactive: 0.976 |
| COCCOC(=O)N1C(=O)[C@@]2(c3cc(C#CCNC(N)=O)ccc31)[C@H](c1ccc(O)cc1)N1[C@H](c3ccccc3)[C@H](c3ccccc3)OC(=O)[C@H]1[C@@H]2C(=O)N1CCc2cc(OC)c(OC)cc2C1 | inactive: 1.01 |
| C[C@H]1CN([C@@H](C)CO)C(=O)Cc2cc(NS(=O)(=O)c3ccc(Cl)cc3)ccc2O[C@H]1CN(C)Cc1ccc(Oc2ccccc2)cc1 | inactive: 0.983 |
| C[C@H]1CN([C@@H](C)CO)C(=O)c2cc(NS(=O)(=O)c3cn(C)cn3)ccc2O[C@H]1CN(C)CC1CC1 | inactive: 0.979 |
| CCCNC(=O)Cn1c(=O)n(C)c2ccccc21 | inactive: 1.01 |
| C[C@@H]1CCCCO[C@@H](CN(C)Cc2ccc3c(c2)OCO3)[C@H](C)CN([C@H](C)CO)C(=O)c2cc(NC(=O)Nc3ccc(C(F)(F)F)cc3)ccc2O1 | inactive: 1.01 |
| C[C@@H]1CCCCO[C@H](CN(C)Cc2ccc(C(=O)O)cc2)[C@@H](C)CN([C@@H](C)CO)C(=O)c2cc(NC(=O)Nc3cccc4ccccc34)ccc2O1 | inactive: 1.02 |
| C[C@@H]1CN([C@@H](C)CO)C(=O)Cc2cc(NC(=O)CCC(F)(F)F)ccc2O[C@H]1CN(C)Cc1ccc(Oc2ccccc2)cc1 | inactive: 0.966 |
